Test results taken from PubChem BioAssay AID488969 (Vanderbilt High Throughput Screening Facility, 2010).
In all, about 110,000 compounds were measured (“z-score”: median about -0.1, highest 2% from about 2 on). The list shows a part of the results.

molecular target: Metabotropic glutamate receptor 8 (Rattus norvegicus) (UniProt P70579); assay: mGluR8 Gi/Go-coupled signaling modulation – cell-based, rat, thallium flux, HTS, primary screen (AID 488969); details: HEK293 rat mGluR8, GIRK (G protein-gated inwardly rectifying potassium channel) thallium flux, FluoZin2; at 10 µM; stronger effect = higher value; submaximal glutamate (EC20) added with thallium
Chain of UniProt P70579 (P70579 whole entry, looked up): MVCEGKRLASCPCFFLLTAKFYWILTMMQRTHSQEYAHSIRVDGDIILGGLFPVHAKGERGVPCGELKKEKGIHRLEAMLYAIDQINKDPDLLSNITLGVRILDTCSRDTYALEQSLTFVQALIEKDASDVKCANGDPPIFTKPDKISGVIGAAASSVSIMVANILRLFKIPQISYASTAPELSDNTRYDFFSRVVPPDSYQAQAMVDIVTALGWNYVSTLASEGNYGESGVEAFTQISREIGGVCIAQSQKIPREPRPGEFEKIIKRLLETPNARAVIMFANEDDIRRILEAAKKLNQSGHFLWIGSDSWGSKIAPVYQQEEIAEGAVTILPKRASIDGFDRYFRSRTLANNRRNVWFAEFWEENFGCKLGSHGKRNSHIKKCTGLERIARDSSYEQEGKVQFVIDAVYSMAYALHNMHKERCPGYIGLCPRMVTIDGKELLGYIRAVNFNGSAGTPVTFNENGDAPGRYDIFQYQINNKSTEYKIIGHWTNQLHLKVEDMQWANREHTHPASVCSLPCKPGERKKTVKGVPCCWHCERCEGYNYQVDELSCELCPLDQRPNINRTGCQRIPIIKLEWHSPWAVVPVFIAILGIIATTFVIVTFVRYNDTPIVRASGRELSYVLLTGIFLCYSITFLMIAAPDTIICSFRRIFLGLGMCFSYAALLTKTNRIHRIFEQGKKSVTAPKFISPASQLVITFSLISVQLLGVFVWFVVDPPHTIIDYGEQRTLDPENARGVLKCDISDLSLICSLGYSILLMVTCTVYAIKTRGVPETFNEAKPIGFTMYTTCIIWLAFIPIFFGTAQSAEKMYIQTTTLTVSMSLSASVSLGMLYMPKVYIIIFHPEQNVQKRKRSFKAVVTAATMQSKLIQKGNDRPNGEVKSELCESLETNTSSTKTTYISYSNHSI

In order of rising z-score:
1. CCOC(=O)C1CCCN(C(=O)C(C)Oc2ccc(Cl)cc2Cl)C1 (configuration not stated)  -1.01
2. C/C=C/C(=O)OCC(=O)NC(=O)NC(C)C  -0.893
3. COc1ccc(C2N3CC4(C)CN2CC(C)(C3)C4O)cc1OC (configuration not stated)  -0.873
4. CCOC(=O)C1CCCN(C(=O)c2cc3c(-c4cccc(OC)c4)nn(C)c3s2)C1 (configuration not stated)  -0.832
5. Cc1ccc(CNC(=O)c2oc3ccc(S(=O)(=O)N4CCC5(CC4)OCCO5)cc3c2C)cc1  -0.761
6. CCN(CC)c1ccc(/C=N/Nc2nc3ccccc3[nH]2)cc1  -0.685
7. COc1ccc2nc3sc(C(=O)NCc4cccs4)c(N)c3cc2c1  -0.595
8. COc1ccc(OC)c(C(=O)CSc2nnc(-c3cccs3)n2C)c1  -0.572
9. Cc1csc2nc(CSc3ccc(Cl)cc3)cn12  -0.569
10. Cc1nnc(NC(=O)CSc2nccn2-c2cccc(C)c2C)s1  -0.535
11. Cc1cccc(OCCN2CSC(=S)N(C)C2)c1  -0.523
12. CCCCc1nnc(NC(=O)CSc2nc(=O)cc(N)n2-c2cccc(C)c2)s1  -0.519
13. CN(C)CCNc1ncnc2ccccc12  -0.498
14. Cc1nn2c(N)c(C#N)cnc2c1-c1ccc(Cl)cc1  -0.468
15. Cc1ccc(N2CCN(C(=O)c3ccccc3Br)CC2)c(C)c1  -0.466
16. CCN(CC)S(=O)(=O)c1ccc(S(=O)(=O)N2CCCC2C(=O)O)cc1 (configuration not stated)  -0.394
17. O=C(OCCN1C(=O)c2ccccc2C1=O)c1cnccn1  -0.322
18. CCC1CCc2c(sc(NC(=O)c3ccoc3C)c2C(N)=O)C1 (configuration not stated)  -0.28
19. CCN(c1nc(C)cc(OC)n1)S(=O)(=O)c1ccccc1  -0.243
20. c1ccc(-c2nc(NCc3cccnc3)c3ccccc3n2)cc1  -0.237
21. Cc1ccc(C)n1C(Cc1ccccc1)C(=O)O (configuration not stated)  -0.216
22. Cc1[nH]c(=O)[nH]c(=O)c1/C=N/NC(=O)[C@H](C)NC(=O)OC(C)(C)C  -0.214
23. CCn1c(=O)c2cc(S(=O)(=O)NCCOc3ccccc3)ccc2n(CC)c1=O  -0.212
24. COc1ccccc1N1CCN(C(c2cccs2)C(C)NC(=O)c2cccs2)CC1 (configuration not stated)  -0.195
25. O=C(C1CCCCC1)N1CCC(n2nnc3ccccc32)CC1  -0.194
26. O=C(CCc1ccccc1)Nc1cccc(-c2nnc(-c3ccco3)o2)c1  -0.189
27. O=C1C(Cl)=C(NCCCO)C(=O)c2ccccc21  -0.185
28. Cc1nc2ccccc2c2oc(C(=O)NCC3CCCO3)cc12 (configuration not stated)  -0.169
29. Cc1cc(C(=O)NCc2ccc(S(N)(=O)=O)cc2)cs1  -0.157
30. c1ccc(NCc2nc3ccccc3n2CCOc2ccccc2)cc1  -0.153
31. Cc1c(/C=C/C(=O)c2ccc(Cl)s2)cnn1C  -0.148
32. O=C(O)CCCNS(=O)(=O)c1ccc(F)cc1  -0.131
33. CC(C)(C)c1ccc(OCCCC(=O)NC2=NCCS2)cc1  -0.13
34. Cc1cc(C(C)(C)C)oc1C(=O)N1CCN(C(=O)c2oc(C(C)(C)C)cc2C)CC1  -0.122
35. c1cc(C(c2nnnn2C2CCCCC2)N2CCN3CCCC3C2)ccn1 (configuration not stated)  -0.11
36. CS(=O)(=O)N1CCN(c2c(Cl)cccc2[N+](=O)[O-])CC1  -0.0974
37. COC(=O)CSc1nc2ccc(NC(C)=O)cc2s1  -0.096
38. Cc1ccccc1CN(c1ccc(C(=O)Nc2ccccc2C(=O)NCc2ccco2)cc1)S(C)(=O)=O  -0.0931
39. COc1ccc(-c2ccc(=O)n(CC(=O)N3CCN(c4ccccc4OC)CC3)n2)cc1  -0.0822
40. Cc1cc(C(=O)Nc2ccccn2)no1  -0.0646
41. CCN(CC)C(=O)CNC(=S)N(CCCN1CCOCC1)Cc1cccs1  -0.0461
42. CC1CCN(S(=O)(=O)c2ccc(NC(=O)CCN3C(=O)c4ccccc4C3=O)cc2)CC1  -0.0347
43. COc1ccc(C(C(=O)NC2CCCCC2)N(C(=O)c2ccco2)c2ccc(-n3cnnn3)c(C)c2)cc1 (configuration not stated)  -0.0291
44. Cc1cc(C(=O)NCc2cccnc2)n(-c2ccccc2)n1  -0.00475
45. Cc1nc(SCc2c(F)cccc2Cl)n[nH]1  0.0291
46. COc1ccc(N(C)C(=O)CCS(=O)(=O)c2cccc3nonc23)c(OC)c1  0.0431
47. CN(C)C(=S)NCc1ccccc1  0.087
48. COc1ccc(Cc2nnc(NC(=O)CSc3ccc(C)cc3)s2)cc1  0.0974
49. CCc1ccc2c(c1)cc(CN(C(=S)Nc1ccccc1C)C1CC1)c1nnnn12  0.143
50. Cn1c(SCc2nnc3n2CCCCC3)nc2ccccc21  0.354
51. S=C(c1ccc2c(c1)OCO2)N1CCCCCC1  0.367
52. CCCn1nnnc1SCC(=O)NCc1ccccc1  0.377
53. CCOc1ccccc1N1CCN(Cc2ccco2)CC1  0.418
54. COc1ccccc1NC(=O)Nc1ccc(Cl)c(S(=O)(=O)Nc2ccccc2OC)c1  0.428
55. COC(=O)C(NC(=O)C(CC(C)C)NC(=O)C1CCC(C)CC1)C(C)C (configuration not stated)  0.467
56. CCCCS(=O)(=O)Nc1ccc2c(c1)ncn2C1CCCCC1  0.544
57. CC(C)NC(=S)N/N=C/c1cccs1  1.57
